In all, about 33,000 sequences were measured (“E-score (-0.5 to 0.5)”: median about -0.054, highest 2% from about 0.35 on). Some of the results follow.
Molecular target: T1, Stb5 (UniProt P38699)
T1 sequence: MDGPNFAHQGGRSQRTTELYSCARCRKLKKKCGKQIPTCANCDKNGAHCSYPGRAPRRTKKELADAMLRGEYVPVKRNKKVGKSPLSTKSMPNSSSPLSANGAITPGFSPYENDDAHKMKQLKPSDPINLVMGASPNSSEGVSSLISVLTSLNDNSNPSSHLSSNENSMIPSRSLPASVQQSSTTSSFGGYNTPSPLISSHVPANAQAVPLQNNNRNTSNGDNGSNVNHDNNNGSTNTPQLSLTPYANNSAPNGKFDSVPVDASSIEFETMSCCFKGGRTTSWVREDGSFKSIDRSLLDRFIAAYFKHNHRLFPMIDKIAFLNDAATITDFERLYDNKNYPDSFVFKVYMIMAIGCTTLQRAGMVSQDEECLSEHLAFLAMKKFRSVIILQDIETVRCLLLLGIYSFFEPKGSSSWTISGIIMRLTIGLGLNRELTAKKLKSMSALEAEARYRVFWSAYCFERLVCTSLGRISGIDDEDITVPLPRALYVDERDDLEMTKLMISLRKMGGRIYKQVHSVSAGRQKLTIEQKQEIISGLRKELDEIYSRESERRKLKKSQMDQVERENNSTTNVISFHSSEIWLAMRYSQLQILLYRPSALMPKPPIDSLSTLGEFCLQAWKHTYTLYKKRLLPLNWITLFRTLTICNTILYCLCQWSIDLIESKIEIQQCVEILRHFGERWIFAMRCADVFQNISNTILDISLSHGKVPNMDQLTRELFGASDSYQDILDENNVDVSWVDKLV
Experiment: PBM E-score (8-mer binding enrichment) (E-score (-0.5 to 0.5)); higher = stronger / more preferred TF binding; most listed sequences are background and not binding sites
Conditions: protein concentration: 200 nM; construct: GST-full length
Procedure: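 Universal 'all 10-mer' protein binding microarrays (Agilent AMADID 015681) probed with GST-tagged S. cerevisiae TFs (full-length or DBD) made by in vitro transcription/translation (PURExpress), about 100-200 nM. Bound TF was detected with fluorescent anti-GST. Each ungapped 8-mer (which stands for itself and its reverse complement) is scored by the PBM enrichment score (E-score), a modified Wilcoxon-Mann-Whitney statistic from -0.5 to +0.5, computed with the Universal PBM Analysis Suite. Scale: above 0.35 generally sequence-specific binding.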

Sequence	PBM E-score
AACTCCCT	-0.0261
GCGATTGA	-0.174
CTACGCGC	0.0303
TAAGGCCA	0.0104
GCGGTGAC	0.358
TCTGCGAA	-0.223
CGAGCAAG	-0.149
ACAGTTCT	-0.169
ACGTGTCA	-0.25
CCACAAGC	-0.0807
CAACGCCG	0.318
ACTCAGTA	-0.113
GACTCAGC	-0.123
CTACTCAA	-0.135
AAGGCACC	0.153
CCGTGTAA	0.109
GCGGGGCA	0.249
CAGCTTTC	-0.0389
AACAGAAG	-0.144
GGTCGCAA	0.143
ATCACTTG	-0.145
GCGGGGGA	0.261
CCATCACC	0.0449
ATATAGGA	-0.0657
GCCTATCA	-0.0338

Sequence	PBM E-score
ATGTGATC	-0.0459
CGTATAAA	0.206
ATTTCTCA	-0.0486
TCAAATAA	0.00335
ATGGGTTC	-0.273
AGGGTATA	0.217
ACTGTAGA	-0.164
CAGGTCGC	-0.259
CGGGGTAC	0.188
CTCCTTTC	0.0201
CAGCGTAC	0.0758
AAGCTTTA	-0.324
ACACTTCC	-0.101
GACCCAAC	-0.0474
ACCGTGTC	0.294
CCAAGGCA	-0.00153
GGGTCGAC	0.157
CTCCGGCA	0.332
AATGTCGC	0.00121
CAAGATGC	-0.063
ATATGCTG	-0.0432
GCAATACA	0.0328
GCCCGTTA	0.228
CCCCCATA	-0.283
CAAGTATC	-0.136

Sequence	PBM E-score
GCTTCGTA	-0.294
CATCAGGC	-0.0697
ACATCGCA	-0.0203
ATAAAATC	0.131
AGTCACTA	-0.0227
ACGAGGTG	-0.119
TCACATAA	-0.0359
ACAATGTA	-0.112
ATCGTTAC	-0.205
GCCCGAGC	-0.0669
GAGAGTAA	-0.19
ATAGGTTG	-0.175
ACCACGCT	-0.133
AAAGTCAG	-0.167
CGCATTAG	-0.0434
CTTACGAC	-0.197
CGTGCGAG	0.0353
AAAACAAG	-0.0664
CAAACTGC	0.0402
CAGTGTGG	-0.0854
GCCCCTAA	-0.0418
AGCACGTA	-0.156
ACGCGTAC	-0.223
GATACGCC	0.102
AAGCGCTA	0.0383

Sequence	PBM E-score
AAGCGTAT	-0.154
AATTAACT	-0.0771
CTCTACGC	-0.198
CAGCCTAC	-0.0887
CGCGGGCA	0.305
CCTCGCCG	0.0569
ACGGGCGC	0.0712
CGTAAGCA	-0.151
AGATAAAC	0.0577
CAGTCCAG	-0.128
CGGGCCAG	-0.0225
CTTGGGGC	0.0335
AAGACATG	-0.124
CAGCGCAA	-0.0211
GGCCCAAA	0.1
ACTGGACC	0.0683
ATCATGAA	-0.00907
GAATGTGC	-0.0252
AGTTTAAA	0.149
AGATGTTG	-0.103
ATGAGGGA	-0.293
ACAGTTAT	-0.0772
AGCTAGCA	-0.083
AGGTCGGG	0.248
GCAGAAGC	-0.0355

Sequence	PBM E-score
GACGCTCA	0.00113
GACCCCAA	-0.0607
AATGCAGT	-0.16
CCATGTGC	-0.0297
AGCCAGGG	-0.268
ACTGGATG	-0.257
AGCCTCTC	-0.299
CCTGCGAC	-0.0908
CAGCAGCG	0.0594
CCACACCG	0.264
CCCTTCAG	-0.243
ATCTCAGA	-0.137
CACCGATA	0.351
AGTTATGG	0.0212
ATTCACGC	-0.163
ATGATGCC	0.14
AACCGGGC	0.239
GATGTACC	0.0308
GAAGCCCA	-0.14
GACTACGA	-0.184
AGCTGTAA	-0.0795
CCGGTGCA	0.28
TATGGTCA	-0.127
CCGGCAGG	0.183
CTCATATC	-0.132

Sequence	PBM E-score
CCTTTGAG	-0.217
ATTGAGCC	0.0599
CATAAAGG	-0.0239
CAGTTTGC	-0.0486
CCTCCTAA	-0.0546
CAGTCTCC	-0.0247
GATAGACC	0.167
CACCAGGC	-0.157
ATAAAAAC	0.0121
CACCTAAG	-0.121
TAAGTAGA	-0.162
TATAAGGA	-0.0663
GGATATAC	0.283
TACGTAGA	-0.182
ACAGCTCA	-0.252
CATTCCGC	0.109
ATAGACAG	-0.256
CTCGGTTC	-0.0462
AAGTATTC	-0.186
AGAGTGCT	-0.0924
AACGCCTT	-0.00961
CAGCTCAA	-0.266
ATTTGGCC	-0.0827
ATCATAAT	-0.129
CCCTGCGA	-0.321

Sequence	PBM E-score
CGTCGCAA	0.0017
CGTCGGCA	0.334
CGGCGTGA	0.326
CCTACCAA	-0.101
AGGGTGCA	-0.155
CTTTCTGA	-0.199
AACTTGAA	0.0989
AAATCACC	0.245
AATCCGCT	0.177
GCACAGGA	-0.175
GTCAAAGA	-0.189
GGTCTGCA	0.178
CGCTACGC	0.178
ACGCTCAT	-0.149
ATTTCGGG	0.13
AAAGGGAC	-0.0879
ACTGGTAT	-0.105
CTTTATAA	0.219
ACTCGACA	-0.0355
CTACGATC	-0.223
ACAATTGC	-0.0403
ACATTTAC	-0.168
CGGCGTAG	0.13
ACCGGGTC	0.19
CTAAAGGC	-0.135

Sequence	PBM E-score
GGGCATAC	0.203
CGTTTTTA	0.0655
CCTAGTGA	0.059
ATTCAGAC	-0.201
CTCTGTCA	-0.208
GTTTCATA	0.0002
ATTTCAGA	-0.163
CGCAACGA	-0.0209
AACTTCGG	0.107
CAGATGCG	-0.153
TTCGGCAA	0.15
CTCAAAAA	-0.0307
AAACTAGG	0.0203
GTTGAACA	-0.121
GGTCCCCA	-0.107
TAAGAAAA	-0.226
CGTTCCAA	0.081
CCACAAAC	0.0338
GCCCGTAC	0.157
AGCCCTCA	-0.114
CTATCAAA	-0.182
TCAAGCCA	-0.184
CTCCGGGC	0.118
CCCCGAGC	0.2
AGATGCTG	-0.279

Sequence	PBM E-score
GAAAGGTA	-0.212
GCGTGCCC	-0.139
CCTAGAGA	-0.26
CCTACGAG	-0.261
TCGGCGCA	0.157
GCAGCTGC	-0.0296
CTAGTGTA	-0.134
AAAAACCC	0.226
GATGCTCC	0.00234
GGTCTGAC	0.0773
CTGTCCAA	-0.0726
CGAAAGTA	-0.00846
CTTACTTC	-0.0525
CCACCCTA	-0.157
GGGCGCCA	-0.0493
GACTCGGA	0.151
CCATTTCG	-0.0141
AACATAAC	-0.0581
CCGATTAG	0.283

Reference: the supplement of paper PMC3334620
